Measurements reported in PubChem BioAssay AID652104 (National Center for Advancing Translational Sciences (NCATS), 2013).
About 7,200 (1.8%) of roughly 410,000 compounds were called active. Inconclusive means that the source gave no clear call. Such entries were picked first, then a sample of the others. The call rests on the fitted dose curve; in most records, active means well fitted activation curve with a large enough effect; inconclusive means small, poorly fitted or top-dose-only effect, or another doubt; inactive means no such curve, though single readings can be large or run the other way. No potency is given beside an inconclusive call; the fits are too rough.

Test: qHTS of TDP-43 Inhibitors; further: nearly all actives have a fitted effect of over 50% in size; on growth rescue (activation): % of control where 0% means no effect
Conditions: TDP-43 expressing yeast growth rescue, BacTiter-Glo, 24 h; growth rescue (activation): at 46.1 µM (top of the series) unless noted
How it was run: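 Galactose-induced TDP-43 yeast, OD600=0.02, compound pinned; 24 hr, 30 deg C; BacTiter-Glo luminescence for growth. Inhibitors of TDP-43 toxicity read as activators.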
Potency means the concentration at half of the fitted maximal effect; tags describe the fitted curve by direction and shape.

| Compound | Potency | growth rescue (activation) |
| --- | --- | --- |
| CSc1ncnc2c1ncn2CCCN1CCN(C(=O)C2CC2)CC1 | inconclusive [activator, full curve, poor fit] | – |
| COc1ccc(CC(=O)NCc2nc(-c3ccccc3)no2)cc1 | inconclusive [activator, single point] | – |
| CC1CCN(c2ccccc2NC(=O)c2cc([N+](=O)[O-])ccc2N2CCOCC2)CC1 | inconclusive [activator, single point] | – |
| O=C(Nc1ccc2c(c1)OCO2)C1Cc2c(-c3ccc4c(c3)OCO4)ccnc2O1 (centres undefined) | active: 28.2 µM | – |
| CN=C1SC(CC(=O)Nc2cc(Cl)ccc2Cl)C(=O)N1C (centres undefined) | inconclusive [activator, single point] | – |
| CC(=O)c1cccc(NC(=S)NC(=O)c2ccc(C)cc2)c1 | inconclusive [activator, partial curve] | – |
| Cc1ccc(NC(=S)N(Cc2ccc(Br)cc2)Cc2ccc(C(=O)O)cc2)cc1C | inconclusive [activator, single point] | – |
| CCCCC(=O)NNC(=S)NC(=O)C(c1ccccc1)c1ccccc1 | inconclusive [activator, single point] | – |
| COc1ccc(CNC(=O)CSc2ccsc2[N+](=O)[O-])cc1 | inconclusive [activator, single point] | – |
| CNC(=S)N/N=C/c1c(C)nn(-c2ccc(F)cc2)c1Cl | inconclusive [activator, single point] | – |
| O=C(NCCNc1ccc([N+](=O)[O-])cc1C(F)(F)F)c1ccccc1F | active: 20 µM | – |
| Cc1ccccc1C(=O)OCC(=O)NCC1COc2ccccc2O1 (centres undefined) | active: 14.1 µM | – |
| O=C(CCc1c[nH]c2ccccc12)N1CCN(c2ccc(F)cc2)CC1 | inconclusive [activator, partial curve] | – |
| CCOC(=O)Cc1nnc(Nc2cccc(C)c2)c2ccccc12 | – | inactive: 14.7% |
| COc1ccc2nc(N(Cc3cccnc3)C(=O)COc3ccccc3)sc2c1 | active: 15.8 µM | – |
| CN1C(=S)SC(/[N+]([O-])=C/c2cccnc2)C1(C)C (centres undefined) | – | inactive: 1.95% |
| Cc1ccc(Nc2ncnc3c2nc2n3CCCC2)c(Br)c1 | active: 17.8 µM | – |
| O=C1C=C(c2ccc(F)nc2)C[C@@H](c2ccc3c(c2)OCO3)C1 | active: 12.6 µM | – |
| CCCn1c(SCC(=O)N2CCCCC2)nnc1C(C)C | inconclusive [activator, single point] | – |
| O=C(Oc1ccnc2cc(Cl)ccc12)N1CCCCCC1 | – | inactive: 24.4% [at 9.22 µM] |
| O=C1CC(C(=O)Nc2cccc3ccccc23)C2(CCCC2)O1 (centres undefined) | inconclusive [activator, partial curve] | – |
| O=C1NC(c2ccccc2OC(F)F)Oc2ccccc21 (centres undefined) | – | inconclusive: 31.2% [activator] |

| Compound | Potency | growth rescue (activation) |
| --- | --- | --- |
| COc1ccc(-c2cc(-c3ccccc3)nc(N)n2)c(O)c1 | inconclusive [activator, partial curve] | – |
| CCN(c1ccc(NC(=O)COC(=O)c2cc3ccccc3oc2=O)cc1)C(C)C | inconclusive [activator, partial curve] | – |
| O=C(CN1CCc2ccccc2C1)Nc1ccc(OC(F)(F)F)cc1 | – | inactive: -13.2% |
| O=C(NC(=S)N1CCc2ccccc21)c1ccccc1Cl | inconclusive [activator, partial curve, poor fit] | – |
| Cc1ccc(OCC(=O)Nc2ccc3oc(=O)ccc3c2)c(C)c1 | inconclusive [activator, full curve, poor fit] | – |
| c1ccc2c3n(nc2c1)CCCCO3 | – | inactive: 22.4% |
| CN1CCc2nc3sc(C(=O)Nc4ccccc4C(F)(F)F)c(N)c3cc2C1 | inconclusive [activator, single point] | – |
| COc1ccccc1Cc1nc2ccccc2nc1SCC(=O)NCc1ccccc1Cl | inconclusive [activator, full curve, poor fit] | – |
| COc1ccc(C(=O)/C=C/Nc2cc(C)on2)c(OC)c1 | inconclusive [activator, single point] | – |
| CC12CCC(C(=O)Nc3nc4ccc(Br)cc4s3)(OC1=O)C2(C)C (centres undefined) | inconclusive [activator, full curve] | – |
| Cc1nonc1OC(C)CNc1ccc([N+](=O)[O-])cc1 (centres undefined) | active: 20 µM | – |
| Cc1nc2scc(C)n2c(=O)c1S(=O)(=O)Nc1cccc(C(F)(F)F)c1 | inconclusive [activator, partial curve] | – |
| Cc1oc2c(C)c3oc(=O)c(CCC(=O)O)c(C)c3cc2c1-c1ccccc1 | – | inactive: 24.6% |
| COc1cc(C(=O)N/N=C(\C)c2ccc(NC(=O)Cc3ccccc3)cc2)ccc1O | inconclusive [activator, partial curve] | – |
| O=C1C(F)=CC(COC(c2ccccc2)(c2ccccc2)c2ccccc2)OC1n1cc(F)c(=O)[nH]c1=O (centres undefined) | – | inconclusive: -86% [activator] |
| Cc1ccsc1/C=N/Nc1ncc(Cl)cc1Cl | inconclusive [activator, single point] | – |
| O=C(c1ccc2nsnc2c1)N1CCN(c2ccc([N+](=O)[O-])cc2)CC1 | inconclusive [activator, single point] | – |
| Cc1ccc(NC(=O)CSc2ncc3ccccn23)cc1C | inconclusive [activator, single point] | – |
| COc1ccc(-c2noc(-c3ccc(NCC4CCCO4)c([N+](=O)[O-])c3)n2)cc1OC (centres undefined) | inconclusive [activator, full curve] | – |
| CC(=O)Nc1ccc(NC(=O)CCS(=O)(=O)c2ccc3c(c2)CC(=O)N3C)cc1 | inconclusive [activator, partial curve] | – |
| COC(=O)Nc1ccc(S(=O)(=O)N2CCC(C(=O)N(C)C3CCCCC3)CC2)cc1 | inconclusive [activator, single point] | – |
| O=C(ON=C1CCN(S(=O)(=O)c2ccccc2)CC1)c1ccc(F)cc1 | inconclusive [activator, single point] | – |
